Measurements published in paper PMC4336329 (PLoS ONE, 2015).
The campaign covered roughly 310,000 compounds. About 2,200 (0.71%) showed an effect of 50% or more. The effect is printed as a negative number. The list shows a part of the results.

Each compound was assayed against human ether-à-go-go-related gene (hERG) potassium channel (human, UniProt Q12809) (assay: primary screen, population patch clamp on CHO cells stably expressing hERG).
human ether-à-go-go-related gene (hERG) potassium channel, sequence (Q12809 whole entry, looked up): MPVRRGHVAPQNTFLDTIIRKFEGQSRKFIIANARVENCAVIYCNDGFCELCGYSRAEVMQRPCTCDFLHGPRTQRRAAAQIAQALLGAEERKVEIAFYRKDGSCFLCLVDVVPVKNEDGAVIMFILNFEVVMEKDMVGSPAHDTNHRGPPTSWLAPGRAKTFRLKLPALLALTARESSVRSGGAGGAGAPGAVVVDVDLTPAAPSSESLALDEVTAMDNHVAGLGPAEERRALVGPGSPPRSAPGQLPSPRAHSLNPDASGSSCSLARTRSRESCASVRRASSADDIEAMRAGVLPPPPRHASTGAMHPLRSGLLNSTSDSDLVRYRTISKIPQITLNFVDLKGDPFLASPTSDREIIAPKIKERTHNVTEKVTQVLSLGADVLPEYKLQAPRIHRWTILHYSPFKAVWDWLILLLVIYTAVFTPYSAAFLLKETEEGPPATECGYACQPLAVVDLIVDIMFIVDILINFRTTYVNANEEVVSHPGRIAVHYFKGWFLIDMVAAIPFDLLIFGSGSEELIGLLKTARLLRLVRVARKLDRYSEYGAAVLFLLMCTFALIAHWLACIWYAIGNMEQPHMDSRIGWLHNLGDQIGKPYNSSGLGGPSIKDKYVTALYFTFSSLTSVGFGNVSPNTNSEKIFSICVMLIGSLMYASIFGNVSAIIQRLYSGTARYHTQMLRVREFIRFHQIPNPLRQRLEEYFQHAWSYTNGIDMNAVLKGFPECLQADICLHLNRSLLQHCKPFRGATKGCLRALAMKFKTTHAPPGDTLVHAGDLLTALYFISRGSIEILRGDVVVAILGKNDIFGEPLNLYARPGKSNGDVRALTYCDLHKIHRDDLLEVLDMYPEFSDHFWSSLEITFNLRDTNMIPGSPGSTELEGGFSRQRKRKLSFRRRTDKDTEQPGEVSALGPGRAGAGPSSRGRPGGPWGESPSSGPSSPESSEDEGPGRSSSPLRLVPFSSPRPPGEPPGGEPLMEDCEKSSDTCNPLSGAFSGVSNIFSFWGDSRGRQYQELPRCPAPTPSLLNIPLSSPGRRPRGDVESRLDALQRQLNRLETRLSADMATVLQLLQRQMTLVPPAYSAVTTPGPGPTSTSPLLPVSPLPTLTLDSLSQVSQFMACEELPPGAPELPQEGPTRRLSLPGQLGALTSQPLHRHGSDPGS
For `Cc1ccc(-c2cc(Cc3ccncc3)c(=O)[nH]n2)cc1`, the “hERG current change (%, negative = inhibition) at 1uM” value was -5.48%.
For `Cc1[nH]c2ccccc2c1C(=O)CSC(=S)N(C)C1CCCCC1`, the “hERG current change (%, negative = inhibition) at 1uM” value was -0.132%.
In the case of `O=C(Nc1c[nH]c(=O)[nH]c1=O)c1cccc([N+](=O)[O-])c1`, the “hERG current change (%, negative = inhibition) at 1uM” value is reported as 11%.
For `O/N=C/c1cn(-c2ccc(Cl)cc2)nn1`, the “hERG current change (%, negative = inhibition) at 1uM” value was 7.48%.
For `Cc1ccc(C(=O)Nc2cccc(C(=O)O)c2)cc1`, the “hERG current change (%, negative = inhibition) at 1uM” value was 16.4%.
In the case of `Cc1ccc2c(c1)cc1c(=O)n(CC(=O)N(C)c3ccccc3)nc(C)n12`, the “hERG current change (%, negative = inhibition) at 1uM” value is reported as 13.7%.
`CCn1c(SC(C)C(=O)O)nc2sc3c(c2c1=O)CCC3` (stereo not drawn) was tested, and the “hERG current change (%, negative = inhibition) at 1uM” value was 17%.
For `CC(C)CCn1c(SCC(=O)NC2CC2)nc2cc(Cl)ccc2c1=O`, the “hERG current change (%, negative = inhibition) at 1uM” value was 17.4%.
`COC(=O)c1ccc2c(c1)N(C)S(=O)(=O)c1cnc(SCC(=O)C(C)(C)C)nc1-2` was tested, and the “hERG current change (%, negative = inhibition) at 1uM” value was 14.1%.
In the case of `COc1ccc(-n2nnnc2SCC(=O)Nc2ccccc2F)cc1`, the “hERG current change (%, negative = inhibition) at 1uM” value is reported as 13.4%.
In the case of `Cc1cc(Cl)c2ccccc2n1.O`, the “hERG current change (%, negative = inhibition) at 1uM” value is reported as 9.1%.
`CN(C(=O)COc1ncnc2sccc12)C1CCCCC1` was tested, and the “hERG current change (%, negative = inhibition) at 1uM” value was 7.82%.
For `COc1cccc(NC(=O)c2cccnn2)c1`, the “hERG current change (%, negative = inhibition) at 1uM” value was 15.4%.
With `CC(C)COc1nc2ccccc2nc1C(C#N)C(=O)NC1CCCCC1` (stereo not drawn) the “hERG current change (%, negative = inhibition) at 1uM” value was 12.9%.
For `CCOC(=O)Cc1csc(NC(=O)COc2cc(C)cc(C)c2)n1`, the “hERG current change (%, negative = inhibition) at 1uM” value was 12.9%.
For `CN(Cc1ccc2nsnc2c1)Cc1nc(Cc2cccc(F)c2)no1`, the “hERG current change (%, negative = inhibition) at 1uM” value was 11.2%.
`COc1ccc(Cc2nnc(NC(=O)c3ccc(C)cc3)s2)cc1OC` was tested, and the “hERG current change (%, negative = inhibition) at 1uM” value was 12.5%.
`Oc1c(N=NC(=S)Nc2ccccc2F)c2ccccc2n1Cc1ccccc1Cl` was tested, and the “hERG current change (%, negative = inhibition) at 1uM” value was 11.5%.
For `COc1cc(C(=O)O)nc2ccccc12`, the “hERG current change (%, negative = inhibition) at 1uM” value was 10.4%.
For `Cc1cc(C)cc(NC(=O)c2ccc(NC(=O)C3C4CC5OC(=O)C3C5C4)cc2)c1` (stereo not drawn), the “hERG current change (%, negative = inhibition) at 1uM” value was 3.07%.
`COc1ccc(CCN2CC(C(=O)N(C)C3CCOCC3)CCC2=O)cc1` (stereo not drawn) was tested, and the “hERG current change (%, negative = inhibition) at 1uM” value was 12.1%.
For `CC(C)c1ccc(N(CC(=O)NCCSCc2ccco2)S(C)(=O)=O)cc1`, the “hERG current change (%, negative = inhibition) at 1uM” value was 7%.
With `COc1ccc(-c2csc3ncn(-c4ccc(C)cc4)c(=O)c23)cc1OC` the “hERG current change (%, negative = inhibition) at 1uM” value was 17.6%.
In the case of `Cc1sc2nc(CSc3ccc([N+](=O)[O-])cc3)[nH]c(=O)c2c1C`, the “hERG current change (%, negative = inhibition) at 1uM” value is reported as 10.5%.
With `CN1C[C@@H]2C(c3ccccc3)C3(c4cccnc4)CC2(C3)[C@H]1c1ccccc1` (stereo partly drawn) the “hERG current change (%, negative = inhibition) at 1uM” value was -3.6%.
In the case of `CCNc1nc(NCC)nc(OCCNS(=O)(=O)c2cc(C)ccc2C)n1`, the “hERG current change (%, negative = inhibition) at 1uM” value is reported as 7.43%.
In the case of `Cc1cc(C)nc(NCCO)n1.Cl`, the “hERG current change (%, negative = inhibition) at 1uM” value is reported as 7.36%.
For `CNS(=O)(=O)c1cc(S(=O)(=O)NC)c2cccc3c2c1NC3=O`, the “hERG current change (%, negative = inhibition) at 1uM” value was 11.1%.
With `CCCCn1c(N)c(N(CCOC)C(=O)c2cc3c(s2)CCCCC3)c(=O)[nH]c1=O` the “hERG current change (%, negative = inhibition) at 1uM” value was 11.3%.
In the case of `O=[N+]([O-])c1ccc(Cl)c(S(=O)(=O)NCC2CCCO2)c1` (stereo not drawn), the “hERG current change (%, negative = inhibition) at 1uM” value is reported as 6.29%.
`CSCCC(=O)N1CCCC(N2CCN(c3cccc(C(F)(F)F)c3)CC2)C1` (stereo not drawn) was tested, and the “hERG current change (%, negative = inhibition) at 1uM” value was -2.34%.
`CCCCCCCCCCOC(=O)Cn1c(COc2cccc(C)c2)[n+](C)c2ccccc21.[Cl-]` was tested, and the “hERG current change (%, negative = inhibition) at 1uM” value was -43.9%.
With `CCc1ccc(NC(=O)C2=CC(c3ccc(OC)c(OC)c3)=NS(=O)(=O)N2C)cc1` the “hERG current change (%, negative = inhibition) at 1uM” value was 4.48%.
With `CCCOc1ccc(C2NC(=O)NC2=O)cc1` (stereo not drawn) the “hERG current change (%, negative = inhibition) at 1uM” value was 12.5%.
In the case of `COc1ccc(-c2cc(C(F)F)n3ncc(C(=O)N4CCN(C(=O)c5ccco5)CC4)c3n2)cc1`, the “hERG current change (%, negative = inhibition) at 1uM” value is reported as 9.02%.
`COc1cccc(/C=C2\SC(=S)N(CCC(=O)Nc3ccc(O)cc3)C2=O)c1` was tested, and the “hERG current change (%, negative = inhibition) at 1uM” value was 1.91%.
With `CN(CC1CCCO1)S(=O)(=O)c1ccc(C(=O)Nc2nc(-c3ccccn3)cs2)cc1` (stereo not drawn) the “hERG current change (%, negative = inhibition) at 1uM” value was 9.09%.
With `Cc1ccc2[nH]c(=O)c(CN(C(=O)c3cccs3)c3ccccc3)cc2c1` the “hERG current change (%, negative = inhibition) at 1uM” value was 13.2%.
For `Nc1ncncc1-c1ccc([N+](=O)[O-])cc1`, the “hERG current change (%, negative = inhibition) at 1uM” value was 12%.
In the case of `O=C(c1ccc(Cl)cc1)N1CCC(O)(CSc2ccc(Cl)cc2)CC1`, the “hERG current change (%, negative = inhibition) at 1uM” value is reported as 8.67%.
`COc1c(S(=O)(=O)N2CCN(C(=O)c3ccco3)CC2)ccc(Cl)c1Cl` was tested, and the “hERG current change (%, negative = inhibition) at 1uM” value was 7.64%.
`CC(C)CN(CC(C)C)c1nnc(N)s1` was tested, and the “hERG current change (%, negative = inhibition) at 1uM” value was 10.2%.
For `CNc1nc(N/N=C/c2ccc([N+](=O)[O-])cc2)nc(Nc2ccccc2)n1.Cl`, the “hERG current change (%, negative = inhibition) at 1uM” value was 10.5%.
With `C[n+]1cn(CC(O)COCc2ccccc2)c2ccccc21.[I-]` (stereo not drawn) the “hERG current change (%, negative = inhibition) at 1uM” value was 15.2%.
In the case of `O=C(CCN1C(=O)C2C3CC(C(Br)C3Br)C2C1=O)OCC(=O)c1ccccc1` (stereo not drawn), the “hERG current change (%, negative = inhibition) at 1uM” value is reported as 2.76%.
